In PMC11995724, “Antibiotic target discovery by integrated phenotypic and activity-based profiling of electrophilic fragments” (Cell chemical biology, 2025):
Hit rate of the full screen: of about 3,200 compounds, about 75 (2%) showed an effect of 50% or more. This is one part of the list.

system: T1, S. aureus MSSA476; parameters: species or system S. aureus MSSA476 (TSB) or V. cholerae SAD30 (LB); 384-well bacterial growth screen at 25 uM, OD600 relative to DMSO control; details: relative growth, OD600, TSB; 25 µM; inhibitor
T1 construct: MSSA476

Compound | % of control remaining
CC(Cl)C(=O)NCCC1=CCCCCC1 (centres unmarked) [5-N19, 2-chloro-N-[2-(cyclohept-1-en-1-yl)ethyl]propanamide] | 99.4536%
CC(Cl)C(=O)NC(=O)Nc1ccccc1 (centres unmarked) [5-I21, 3-(2-chloropropanoyl)-1-phenylurea] | 105.647%
C=CC(=O)NCC(F)(F)C1(OC)CCC1 [3-L07, N-[2,2-difluoro-2-(1-methoxycyclobutyl)ethyl]prop-2-enamide] | 118.415%
Cc1nn(CC(C)C)c(Cl)c1C1CCCN1C(=O)C(C)Cl (centres unmarked) [7-P19, 2-chloro-1-{2-[5-chloro-3-methyl-1-(2-methylpropyl)-1H-pyrazol-4-yl]pyrrolidin-1-yl}propan-1-one] | 108.32%
COCc1ncc2c(n1)CC1CCC2N1C(=O)C(C)Cl (centres unmarked) [7-M20, 2-chloro-1-[5-(methoxymethyl)-4,6,12-triazatricyclo[7.2.1.0,2,7]dodeca-2,4,6-trien-12-yl]propan-1-one] | 91.9937%
CNC(=O)c1cc(C(=O)CCl)cn1C [10-G10, 4-(2-chloroacetyl)-N,1-dimethyl-1H-pyrrole-2-carboxamide] | 131.563%
CNC(=O)c1ccc(C2CCCCN2C(=O)C(C)Cl)n1C (centres unmarked) [7-N15, 5-[1-(2-chloropropanoyl)piperidin-2-yl]-N,1-dimethyl-1H-pyrrole-2-carboxamide] | 99.843%
CC(Cl)C(=O)Nc1sc2c(c1C#N)CCCCC2 (centres unmarked) [5-B20, 2-chloro-N-{3-cyano-4H,5H,6H,7H,8H-cyclohepta[b]thiophen-2-yl}propanamide] | 104.918%
C=CC(=O)N(CC)CC(=O)N1CC[S+]([O-])C(C)(C)CC1 (centres unmarked) [3-K21, N-[2-(7,7-dimethyl-1-oxo-1lambda4,4-thiazepan-4-yl)-2-oxoethyl]-N-ethylprop-2-enamide] | 91.2495%
C=CC(=O)N1CCC(Cc2nc(C3CCC3)no2)CC1 [2-A06, 1-{4-[(3-cyclobutyl-1,2,4-oxadiazol-5-yl)methyl]piperidin-1-yl}prop-2-en-1-one] | 129.504%
CC(=Cc1ccccc1)C=C(C#N)C(=O)Nc1ccc2c(c1)OCCO2 [9-J07, 2-cyano-N-(2,3-dihydro-1,4-benzodioxin-6-yl)-4-methyl-5-phenylpenta-2,4-dienamide] | 116.554%
N#CC(=Cc1ccc(C#N)cc1)C(=O)Nc1ccc(F)c(Cl)c1 [9-A22, N-(3-chloro-4-fluorophenyl)-2-cyano-3-(4-cyanophenyl)prop-2-enamide] | 84.4944%
C=CC(=O)N(C)CC(=O)NC1CCCN(c2ccc(F)cc2F)C1=O (centres unmarked) [2-P22, N-({[1-(2,4-difluorophenyl)-2-oxopiperidin-3-yl]carbamoyl}methyl)-N-methylprop-2-enamide] | 103.742%
O=C(NCc1ccco1)C1CCCN1C(=O)CCl (centres unmarked) [5-N05, 1-(2-chloroacetyl)-N-[(furan-2-yl)methyl]pyrrolidine-2-carboxamide] | 93.6248%
C=CC(=O)NCCCN1CCCS1(=O)=O [3-H19, N-[3-(1,1-dioxo-1lambda6,2-thiazolidin-2-yl)propyl]prop-2-enamide] | 86.0253%
C=CC(=O)NCc1ccc(N2CC(C)CS2(=O)=O)cc1 (centres unmarked) [3-J19, N-{[4-(4-methyl-1,1-dioxo-1lambda6,2-thiazolidin-2-yl)phenyl]methyl}prop-2-enamide] | 89.1598%
Cn1c(N)c(N2C(=O)C=CC2=O)c(=O)[nH]c1=O [10-P05, 6-amino-5-(2,5-dioxo-2,5-dihydro-1H-pyrrol-1-yl)-1-methyl-1,2,3,4-tetrahydropyrimidine-2,4-dione] | 104.688%
C=CC(=O)NC(c1ccc(C)cc1)C(C)S(C)(=O)=O (centres unmarked) [2-A10, N-[2-methanesulfonyl-1-(4-methylphenyl)propyl]prop-2-enamide] | 148.651%
N#CC(=Cc1ccccc1OCc1ccccc1)C(=O)NC(N)=O [8-F05, (2-{[2-(benzyloxy)phenyl]methylidene}-2-cyanoacetyl)urea] | 126.141%
C=CC(=O)N(C)CC(=O)N1CCC(c2nc3c(s2)CCCC3)CC1 [2-N04, N-methyl-N-{2-oxo-2-[4-(4,5,6,7-tetrahydro-1,3-benzothiazol-2-yl)piperidin-1-yl]ethyl}prop-2-enamide] | 100.261%
C=CC(=O)NC1(c2ccccc2)CCCC1 [1-O15, N-(1-phenylcyclopentyl)prop-2-enamide] | 112.879%
CC(Cl)C(=O)Nc1ccc(OCc2ccccc2)cc1 (centres unmarked) [6-O13, N-[4-(benzyloxy)phenyl]-2-chloropropanamide] | 85.3659%

Compound | % of control remaining
CC(C)Oc1ccccc1C=C(C#N)C(=O)Nc1ccccc1 [8-M17, 2-cyano-N-phenyl-3-[2-(propan-2-yloxy)phenyl]prop-2-enamide] | 82.6556%
Cc1nccn1Cc1ccc(NC(=O)C(C#N)=Cc2ccco2)cc1 [9-H12, 2-cyano-3-(furan-2-yl)-N-{4-[(2-methyl-1H-imidazol-1-yl)methyl]phenyl}prop-2-enamide] | 102.772%
C=CC(=O)NCc1ccnn1CC(F)(F)F [1-O18, N-{[1-(2,2,2-trifluoroethyl)-1H-pyrazol-5-yl]methyl}prop-2-enamide] | 119.56%
C=CC(=O)NCC1CS(=O)(=O)c2ccccc2O1 (centres unmarked) [3-N17, N-[(4,4-dioxo-2,3-dihydro-1,4lambda6-benzoxathiin-2-yl)methyl]prop-2-enamide] | 109.36%
COc1ccc(C(=O)CCl)c(OC)c1 [10-G18, 2-chloro-1-(2,4-dimethoxyphenyl)ethan-1-one] | 124.375%
O=C(CCl)NC(Cn1cncn1)c1ccccc1 (centres unmarked) [7-N03, 2-chloro-N-[1-phenyl-2-(1H-1,2,4-triazol-1-yl)ethyl]acetamide] | 128.1%
CC(C)C(=O)Nc1ccc(C(=O)C(C)Cl)cc1 (centres unmarked) [10-E08, N-[4-(2-chloropropanoyl)phenyl]-2-methylpropanamide] | 106.875%
C=CC(=O)N(CC)CC(=O)N1CCC(c2nnc(C)o2)CC1 [3-A08, N-ethyl-N-{2-[4-(5-methyl-1,3,4-oxadiazol-2-yl)piperidin-1-yl]-2-oxoethyl}prop-2-enamide] | 88.4632%
C=CC(=O)N1CCC(c2nc(N(C)C)no2)CC1 [2-K09, 1-{4-[3-(dimethylamino)-1,2,4-oxadiazol-5-yl]piperidin-1-yl}prop-2-en-1-one] | 98.1723%
O=C(CCl)N1CCN(Cc2ccon2)CC1 [5-O04, 2-chloro-1-{4-[(1,2-oxazol-3-yl)methyl]piperazin-1-yl}ethan-1-one] | 95.4463%
C=CC(=O)N1CC[C@H](Oc2ccccc2)C1 [3-I18, 1-[(3S)-3-phenoxypyrrolidin-1-yl]prop-2-en-1-one] | 95.4288%
C=CC(=O)NC(C)Cn1cc(C(=O)O)cn1 (centres unmarked) [3-D10, 1-[2-(prop-2-enamido)propyl]-1H-pyrazole-4-carboxylic acid] | 89.1598%
O=C(CCl)NC1CC(=O)N(c2cccc(C(F)(F)F)c2)C1 (centres unmarked) [5-E09, 2-chloro-N-{5-oxo-1-[3-(trifluoromethyl)phenyl]pyrrolidin-3-yl}acetamide] | 113.661%
CC(Cl)C(=O)NCC1CCCCC1 (centres unmarked) [4-I10, 2-chloro-N-(cyclohexylmethyl)propanamide] | 113.578%
CC(Cl)C(=O)NC1CC(C)N(c2ccccc2)C1=O (centres unmarked) [5-B19, 2-chloro-N-(5-methyl-2-oxo-1-phenylpyrrolidin-3-yl)propanamide] | 99.8179%
O=C(CCl)NCc1ccccc1S(=O)(=O)N1CCOCC1 [4-F22, 2-chloro-N-{[2-(morpholine-4-sulfonyl)phenyl]methyl}acetamide] | 113.197%
C=CC(=O)N1CCC(C(=O)N2CCN(c3ccnc(C)n3)CC2)CC1 [2-L06, 1-{4-[4-(2-methylpyrimidin-4-yl)piperazine-1-carbonyl]piperidin-1-yl}prop-2-en-1-one] | 111.053%
C[C@H]1CN(C(=O)CCl)CCN1C(=O)c1cscn1 [5-L05, 2-chloro-1-[(3S)-3-methyl-4-(1,3-thiazole-4-carbonyl)piperazin-1-yl]ethan-1-one] | 92.5319%
COc1ccc(C=C(C#N)C(=O)Nc2ccc(C(=O)O)cc2)cc1C [9-G14, 4-[2-cyano-3-(4-methoxy-3-methylphenyl)prop-2-enamido]benzoic acid] | 105.468%
CC(Cl)C(=O)NC(c1cccs1)c1cccs1 (centres unmarked) [6-L21, N-[bis(thiophen-2-yl)methyl]-2-chloropropanamide] | 108.927%
C=CC(=O)NC(C)c1ccc(-n2nc(C)cc2C)c(F)c1 (centres unmarked) [3-P17, N-{1-[4-(3,5-dimethyl-1H-pyrazol-1-yl)-3-fluorophenyl]ethyl}prop-2-enamide] | 102.743%
C=CC(=O)NCc1coc(-c2ccc(C)cc2)n1 [2-F13, N-{[2-(4-methylphenyl)-1,3-oxazol-4-yl]methyl}prop-2-enamide] | 98.5205%
